The source gives no read counts; variants with many changes may rest on few reads.
B1: CPEB3 Ribozyme (parent)
chain: UAACAGGGGGCCACAGCAGAAGCGUUCACGUCGCAGCCCCUGUCAGAUUCUGGUGAAUCUGCGAAUUCUGCUGUAUAUCUC

Variants of: B1
Experiment: self-cleavage, relative activity (ratio to wild type); higher = more cleavage; in vitro, sequencing
Summary of the method: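 For each CPEB3 ribozyme variant, relative activity is its cleaved/total read fraction divided by the unmutated ribozyme's. Barcoded error-prone PCR libraries were transcribed by T7 RNA polymerase (5 hours, 37°C) and held in DNase I for 15 min before an EDTA stop, with cleavage occurring throughout. Template-switching reverse transcription and Illumina sequencing were used to read the RNAs. A 5-read minimum applied, and results are the mean of three batches.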

| Variant | self-cleavage |
| --- | --- |
| G10U U49C U72A | 0.07 |
| C11G A35U U66C A77G | 0.06 |
| C11A U31C U41A A56G U60A | 0.06 |
| C11G U26C C32U U41C | 0.41 |
| C11G A20U U26C A45G U66C | 0.04 |
| C11G A18U U60C U69C U76C U78C | 0.06 |
| C11G U26A U43A C59A U78C | 0.03 |
| C11A A18U U60A A65G U78A U80A | 0.19 |
| C11A U25C A64G | 0.05 |
| C11G A45G A64U U72C | 0.25 |
| C11A U41A U51C U54C A65G U72G | 0.07 |
| C11G A13U A28C | 0.39 |
| C11A A45G U69C | 0.31 |
| C11A A21G A45G U72A | 0.03 |
| C11G A15U A45G U48A U72C | 0.27 |
| C11A A18G U41A A57G U69C | 0.06 |
| C11A A13G G70A | 0.1 |
| C11A A15U A18U C62G U66C U67C | 0.18 |
| C11A U31A C39A A64G | 0.06 |
| C11G C12A A57G U58A U60A U72C | 0.09 |
| C11A A65G U72A | 0.1 |
| C11G C32U A64G | 0 |
| C11A A56G U58C | 0.07 |
| C11A U51A U67A U69C G70A | 0.07 |

| Variant | self-cleavage |
| --- | --- |
| C11G A15G A57G | 0.46 |
| C11G U25C A77G | 0.09 |
| C11G A35G A45G U66C | 0.43 |
| C11A U72C U78A | 0.52 |
| C11A C27U C32U A56U | 0.03 |
| C11A U72A A77U | 0.19 |
| C11A G24A A47G A64U U69C U74A | 0.03 |
| C11A C14U C17A U72C A77G | 0.38 |
| C11G A15G C29U U31C A57G U78C | 0.03 |
| C11A A28G U31C U51A A56G U69C | 0.09 |
| C11G A15G C29U A45G U51C | 0.11 |
| C11G A21G U26C U49A U58C | 0.05 |
| C11G G16A U41C A56G U78C | 0.08 |
| C11G C23U U49C U72G U80G | 0.04 |
| C11A U26C A35U U41A A47U | 0.06 |
| C11G A15G A45U A56G A77G | 0.09 |
| C11G G22C A28G C34U A65G | 0.05 |
| C11G A13U U31C A57G U60A U78C | 0.09 |
| C11G A13G A45G U72C | 0.48 |
| C11A A18G A20U A57G C68A | 0.05 |
| C11G A13G A35G G52A C68U U76C U78C | 0.45 |
| C11G A15G A18U A47G U67C U69C | 0.06 |
| C11G U26C A47G U49C U51C U58G | 0.31 |
| C11G C44U A65C | 0.09 |

| Variant | self-cleavage |
| --- | --- |
| C11G A13G A28G A45U | 0.08 |
| C11A U58C A65G U72C U74C | 0.11 |
| C11G A18C A77U | 0.09 |
| C11A C12U U51C U72C | 0.16 |
| C11G A20G U67G | 0.19 |
| C11G A35G A75U | 0.57 |
| C11A U26G C38A A64G | 0.08 |
| C11G A35G U49A U51A U69C | 0.07 |
| C11G U25A U51A A64G A65G U72C | 0.04 |
| C11A A20U A28G A57G U80A | 0.03 |
| C11A U25C G30A A45G | 0.22 |
| C11G A18G A64U | 0.11 |
| C11G A18U U43A A64U A65G U76A | 0.04 |
| C11G A20G U25C U31C U41A | 0.05 |
| C11G U26A A28G C44U A56G A65C U67C | 0.04 |
| C11G A13U C34U | 0.25 |
| C11G G19C U26C U48C A56C A65G | 0.03 |
| C11G G63U U72A | 0.22 |
| C11A C29U A35C U41C U43C U66C | 0.03 |
| C11G A13C A18G G19A A20G A35C U49C | 0.11 |
| C11A U43G U48A | 0.46 |
| C11A A13G A28U G63A A64U C71U | 0.04 |
| C11G A35G U80C | 0.22 |
| C11G U25C U31A | 0.34 |

| Variant | self-cleavage |
| --- | --- |
| C11G U25A U26C G61A U72C | 0.06 |
| C11G U25C U41A U43C A47G U66C U67C | 0.11 |
| C11G A28U U49C | 0.11 |
| C11G C40A A45U U60C A65U | 0.03 |
| C11A G33A C40A A56C A57G | 0.05 |
| C11G U25A C38A U41C | 0.3 |
| C11G A18U A47U A65G A75C | 0.05 |
| C11A C23G C32A C38G U69G | 0.02 |
| C11A A35G U43A A56U U69A | 0.09 |
| C11G A15G U51A G61A | 0.35 |
| C11A A15U A45G A57G C79U | 0.1 |
| C11A A35G G61A A64G | 0.06 |
| C11A G30A U54C | 0.09 |
| C11G C59U U69A | 0.16 |
| C11G A18G G61C | 0.06 |
| C11G A18G C37A U48A U58A | 0.07 |
| C11A A20G U26C G33C U72C U76A | 0 |
| C11G U26C U31C U41C | 0.08 |
| C11A A18G C23G U26A U67C | 0.05 |
| C11G C34U U60C A64G U67C U69G U76A | 0.03 |
| C11A A18U U25C A45G U49A A57G U74C | 0.05 |
| C11G A15U U26C U67G | 0.18 |
| C11G A45U U60C U67A | 0.03 |
| C11A U26C A65G U66C | 0.04 |

| Variant | self-cleavage |
| --- | --- |
| C11A U26C C38A A57U | 0.06 |
| C11A A15G A20U U41A A45G | 0.02 |
| C11A U25C U54C U60A | 0.05 |
| C11A A13C U31C C50A U69C | 0.09 |
| C11G A20U A21G U26C U72A | 0.08 |
| C11G A20G A35U A45U U72C | 0.09 |
| C11G A28U A45G A56G U80C | 0.05 |
| C11A C44A U51A U72G | 0.25 |
| C11G A28G U41A U48C U74A | 0.27 |
| C11G A18G A21G A65U U78C | 0.07 |
| C11G C12U A57G U80C | 0.09 |
| C11G A13U U31A U54C A56U | 0.11 |
| C11G G16U A21G U48G A75G | 0.04 |
| C11G U26C A64G U72A | 0.08 |
| C11G A15G U51C U60C U72A | 0.09 |
| C11G A13U A21G U67C U80A | 0.1 |
| C11G U25C G33A A45G A57G U60A C68U | 0.02 |
| C11G U26A A35G U66C | 0.44 |
| C11G C27A U48C U72C | 0.24 |
| C11G A20G G36A U43C U48C | 0.05 |
| C11A A28G A56U U66A | 0.06 |
| C11G G16A U31C A35U C68G | 0.04 |
| C11G A28G A35U U49C U67C U72G | 0.04 |
| C11A A13G A21G A64G | 0.42 |

| Variant | self-cleavage |
| --- | --- |
| C11A A13C U25C A45U U60A U67A U69C | 0.08 |
| C11G U25C G30A A64G U80C | 0.06 |
| C11A U69C C71U | 0.07 |
| C11G A15U A64G | 0.34 |
| C11G A15C C29U U48C | 0.04 |
| C11G A13U C34G C38U U43C | 0.03 |
| C11A A13G A64U | 0.03 |
| C11G A20U U25C | 0.07 |
| C11G C37A U43C U54A | 0.09 |
| C11G U25A U43C A65G | 0.18 |
| C11A A13C G22A U41A U43C A56U A77G | 0.05 |
| C11G A45U U60C | 0.62 |
| C11A A15C C34G U48C U72C | 0.07 |
| C11A A18C U31C U78C | 0.2 |
| C11G A15G G19U A28G U51A | 0.04 |
| C11G A18G C23G C40U U67C U74A | 0.05 |
| C11G U26C C81A | 0.14 |
| C11A A28U U54C U72A U80C | 0.22 |
| C11A A21G U78G | 0.1 |
| C11G C14U C37U A56G U80C | 0.5 |
| C11G A20G A35G U43A U72C | 0.34 |
| C11A A13U U26C U66A C81U | 0.08 |
| C11A U26C U31A A56U U60A U72C | 0.05 |
| C11A A20G U60A | 0.32 |

| Variant | self-cleavage |
| --- | --- |
| C11A A64G U72A | 0.11 |
| C11G A18U A20U U49C A56G A64G U69C | 0.03 |
| C11G A15U U43G A65U | 0.07 |
| C11A U41A A47G | 0.29 |
| C11A U67A U72C | 0.2 |
| C11A A21G G24C A35G A45G | 0.2 |
| C11G A13G A20U U67C U69A | 0.08 |
| C11G A18G U72G U78C | 0.1 |
| C11G A18G C59U U80C | 0.15 |
| C11G A15G G33A U49C | 0.32 |
| C11G U31A A35C U60A U66A | 0.05 |
| C11G U25C C32U U49C U76C | 0.06 |
| C11A A21G A28G U43A | 0.09 |
| C11G C29A U48C U72C | 0.12 |
| C11A A13G U43G | 0.05 |
| C11A U25C A56G U67A | 0.08 |
| C11G G46U A65G A75C | 0.04 |
| C11G A15U U51C U80C | 0.21 |
| C11G A47U A75G | 0.27 |
| C11G A13G C23G U48C A65G U72C | 0.15 |
| C11G A28G A57G U72C A75G | 0.11 |
| C11G A13U U76C U78C | 0.49 |
| C11A C40A U66C U78A | 0.03 |

From the RNAGym collection of RNA variant scans (doi:10.1093/nar/gkz1192)
